Measurements taken from patent US20130085283A1, “GERANYLGERANYLACETONE DERIVATIVES” (Coyote Pharmaceuticals, Inc., priority 2011, published 2013).
At least one read-out could not be matched to a standard name with certainty.

system: Neuro2A cells; assay: In vitro neuroprotection: Neuro2A cells cultured with GGA derivative with or without GGTI-298, cells that extended neurites counted; assay type: cell-based, mouse; conditions: compound at 10 nM, normalized by the activity of CNS-102 (GGA trans-isomer)
Procedure: Neuro2A cells were cultured with a GGA derivative in the presence or absence of an inhibitor against a G-protein (GGTI-298). After differentiation was induced, cells that extended neurites were counted as an activity of the compound. The activities are shown in arbitrary units and were normalized by the activity of CNS-102 (GGA trans-isomer) in each parallel experiments.

SMILES	Activity 10 nM
CC(C)=CCC/C(C)=C/CC/C(C)=C/CC/C(C)=C/CC/C(C)=N/OCC(=O)O [drawing 98]	264 arbitrary units
CC(C)=CCC/C(C)=C/CC/C(C)=C/CC/C(C)=C/CC1CCCCC1=O (stereo not shown) [drawing 67]	228 arbitrary units
CCOC(=O)C=C(CC)CC/C=C(\C)CC/C=C(\C)CCC=C(C)C	225 arbitrary units
CC(C)=CCC/C(C)=C/CC/C(C)=C/CC/C(C)=C/CCC(=O)C1CC1	180 arbitrary units
COCCC(=O)C(C/C=C(\C)CC/C=C(\C)CC/C=C(\C)CCC=C(C)C)C(=O)OC (stereo not shown) [drawing 47]	213 arbitrary units
CC(C)=CCC/C(C)=C/CC/C(C)=C/CC/C(C)=C/COC(=O)C1CCCCC1 [drawing 36]	261 arbitrary units
CC(C)=CCC/C(C)=C/CC/C(C)=C/CC/C(C)=C/CCC1(C)OCCCO1	191 arbitrary units
CON=C(C)CC/C=C(\C)CC/C=C(\C)CC/C=C(\C)CCC=C(C)C	218 arbitrary units
CC(C)=CCC/C(C)=C/CC/C(C)=C/CC/C(C)=C\C=O	199 arbitrary units
CCOC(=O)C(C)(C/C=C(\C)CC/C=C(\C)CC/C=C(\C)CCC=C(C)C)C(C)=O (stereo not shown)	145 arbitrary units
